Laboratory results from paper PMC10865702.
Results are given in words; binding and its absence hold for the method and conditions named. In cells and extracts the contact can be indirect. Some binding calls cover weakened binding; strength is not graded here. For some of these results: Where a sequence is shown, tags or fusion partners need not be part of it. Values belong to the molecule of their own block, whether it stands above or below them.

Sequences of proteins named here, by UniProt entry; tags and fusion partners are left off.
UniProt P53350: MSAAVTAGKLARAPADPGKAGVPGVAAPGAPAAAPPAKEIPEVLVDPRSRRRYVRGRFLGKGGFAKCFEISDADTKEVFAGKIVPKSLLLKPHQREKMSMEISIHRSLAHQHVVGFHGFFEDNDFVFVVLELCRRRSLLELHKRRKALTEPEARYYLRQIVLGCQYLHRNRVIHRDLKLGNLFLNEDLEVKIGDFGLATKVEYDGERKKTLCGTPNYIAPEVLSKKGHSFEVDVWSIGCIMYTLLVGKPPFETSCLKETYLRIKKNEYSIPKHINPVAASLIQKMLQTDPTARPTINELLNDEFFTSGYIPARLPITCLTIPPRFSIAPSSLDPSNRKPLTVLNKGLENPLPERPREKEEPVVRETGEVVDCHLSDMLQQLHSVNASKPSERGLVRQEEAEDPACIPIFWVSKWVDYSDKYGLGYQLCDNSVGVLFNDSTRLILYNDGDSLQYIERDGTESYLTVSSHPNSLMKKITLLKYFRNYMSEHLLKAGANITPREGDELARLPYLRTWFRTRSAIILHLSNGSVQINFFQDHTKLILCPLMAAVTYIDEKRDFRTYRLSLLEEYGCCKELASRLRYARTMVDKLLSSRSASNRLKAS

Experiments:
[1] = molecular target: T1, GST-RhoGDI1 truncation mutant aa 68-89 (human) (UniProt P52565); assay: pull-down; GST-RhoGDI1 (wt or truncation mutants) or GST on GSH-beads, washed, incubated with His-PLK1 expression lysate (E. coli) at 4 °C overnight; immunoblot with PLK1 and GST antibodies; only the target purified
T1 sequence: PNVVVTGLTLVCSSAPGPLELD

[2] = molecular target: T2, GST-RhoGDI1 truncation mutant aa 90-111 (human); assay: as above
T2 sequence: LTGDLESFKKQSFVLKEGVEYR

[3] = molecular target: T3, GST-RhoGDI1 truncation mutant aa 112-134 (human) (UniProt P52565); assay: as above
T3 sequence: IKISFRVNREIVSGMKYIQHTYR

[4] = molecular target: T4, GST-RhoGDI1 truncation mutant aa 1-134 (human) (UniProt P52565); assay: as above
T4 sequence: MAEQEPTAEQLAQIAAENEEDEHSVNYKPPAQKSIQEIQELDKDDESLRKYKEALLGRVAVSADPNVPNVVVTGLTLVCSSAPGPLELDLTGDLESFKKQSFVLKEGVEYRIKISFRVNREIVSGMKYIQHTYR

[5] = molecular target: T5, GST-RhoGDI1 truncation mutant aa 1-67 (human) (UniProt P52565); assay: as above
T5 sequence: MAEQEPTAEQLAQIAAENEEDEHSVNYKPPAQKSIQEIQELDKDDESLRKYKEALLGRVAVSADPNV

[6] = molecular target: T6, GST-fused wild-type RhoGDI1 (human) (UniProt P52565); assay: as above
T6 sequence: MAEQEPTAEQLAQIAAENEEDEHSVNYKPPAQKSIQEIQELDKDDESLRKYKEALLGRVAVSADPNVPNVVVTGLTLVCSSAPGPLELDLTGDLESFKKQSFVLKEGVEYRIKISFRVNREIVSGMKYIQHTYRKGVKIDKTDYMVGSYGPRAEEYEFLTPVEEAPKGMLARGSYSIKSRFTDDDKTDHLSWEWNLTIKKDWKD

[7] = molecular target: T7, Flag-tagged RhoGDI1 (Rho guanine nucleotide dissociation inhibitor 1) (human) (UniProt P52565); assay: co-IP; 293T cells co-transfected; lysates in RIPA buffer; immunoprecipitated with anti-HA or anti-Flag at 4 °C overnight, agarose beads 2 h; immunoblot with HA, Flag or GFP antibodies
T7 sequence: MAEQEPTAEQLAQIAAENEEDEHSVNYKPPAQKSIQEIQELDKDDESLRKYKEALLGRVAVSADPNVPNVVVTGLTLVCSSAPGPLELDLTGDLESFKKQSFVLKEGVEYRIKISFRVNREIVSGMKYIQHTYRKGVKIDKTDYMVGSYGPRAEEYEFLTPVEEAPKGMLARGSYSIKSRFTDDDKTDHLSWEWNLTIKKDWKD

[8] = molecular target: endogenous PLK1 (human (endogenous in HeLa)) (UniProt P53350); assay: proximity ligation; PLK1 and RhoGDI1 antibodies in HeLa cells transfected with GFP-RhoGDI1 aa 90-111; PLA dots in GFP-positive against GFP-negative cells
[9] = molecular target: HA-tagged PLK1 (polo-like kinase 1) (human) (UniProt P53350); assay: co-IP; 293T cells co-transfected; lysates in RIPA buffer; immunoprecipitated with anti-HA or anti-Flag at 4 °C overnight, agarose beads 2 h; immunoblot with HA, Flag or GFP antibodies
[10] = molecular target: HA-tagged PLK1 (polo-like kinase 1) (human) (UniProt P53350); assay: co-IP; HeLa cells co-transfected with HA-PLK1 and Flag-RhoGDI1 or Flag-RhoGDI2; lysates immunoprecipitated with HA antibody; immunoblot with HA and Flag antibodies
[11] = molecular target: endogenous PLK1 (human (endogenous in HeLa)) (UniProt P53350); assay: co-IP; HeLa lysates, endogenous proteins; immunoprecipitated with IgG (control) or PLK1 antibodies; immunoblot with PLK1 or RhoGDI1 antibodies
[12] = molecular target: endogenous PLK1 (human (endogenous in HeLa)) (UniProt P53350); assay: proximity ligation; Duolink In Situ Red kit, fixed HeLa cells, PLK1 and RhoGDI1 antibodies, confocal microscopy

- binding [1]: no binding
- binding [2]: binds
- binding [3]: no binding
- binding [4]: binds
- binding [5]: no binding
- binding [6]: binds
Molecule: His-fused PLK1 (from UniProt P53350 1-603) (enzyme)

- binding [7]: binds
Molecule: HA-tagged PLK1 (polo-like kinase 1) (from UniProt P53350 1-603) (enzyme)

- binding [9]: binds
- binding [10]: binds
B2: Flag-tagged RhoGDI1 (Rho guanine nucleotide dissociation inhibitor 1) (protein, UniProt P52565-1 1-204)
chain: MAEQEPTAEQLAQIAAENEEDEHSVNYKPPAQKSIQEIQELDKDDESLRKYKEALLGRVAVSADPNVPNVVVTGLTLVCSSAPGPLELDLTGDLESFKKQSFVLKEGVEYRIKISFRVNREIVSGMKYIQHTYRKGVKIDKTDYMVGSYGPRAEEYEFLTPVEEAPKGMLARGSYSIKSRFTDDDKTDHLSWEWNLTIKKDWKD

The next lines start with the molecule.

Molecule: LTGDLESFKKQSFVLKEGVEYR (domain or fragment) [GFP-tagged RhoGDI1 truncated mutant (aa 90-111)]
- binding [8]: binds
- binding [9]: binds

B1: Flag-RhoGDI2 (protein, UniProt P52566 1-201)
chain: MTEKAPEPHVEEDDDDELDSKLNYKPPPQKSLKELQEMDKDDESLIKYKKTLLGDGPVVTDPKAPNVVVTRLTLVCESAPGPITMDLTGDLEALKKETIVLKEGSEYRVKIHFKVNRDIVSGLKYVQHTYRTGVKVDKATFMVGSYGPRPEEYEFLTPVEEAPKGMLARGTYHNKSFFTDDDKQDHLSWEWNLSIKKEWTE
- binding [9]: no binding
- binding [10]: no binding

B3: endogenous RhoGDI1 (protein, UniProt P52565 1-204)
chain: MAEQEPTAEQLAQIAAENEEDEHSVNYKPPAQKSIQEIQELDKDDESLRKYKEALLGRVAVSADPNVPNVVVTGLTLVCSSAPGPLELDLTGDLESFKKQSFVLKEGVEYRIKISFRVNREIVSGMKYIQHTYRKGVKIDKTDYMVGSYGPRAEEYEFLTPVEEAPKGMLARGSYSIKSRFTDDDKTDHLSWEWNLTIKKDWKD
- binding [8]: binds
- binding [11]: binds
- binding [12]: binds
